In paper PMC5700166:
Only a part is listed here, and it is no random draw. The list includes weakly bound sequences.

Each sequence was assayed against T1, GST-Dm-Relish (UniProt Q94527) (assay: protein-binding microarray (PBM)). Conditions: PBM: ~300 nM protein, 6 mM HEPES pH 7.8, 80 mM KCl, 0.5 mM EDTA, 0.5 mM EGTA, 6% glycerol, 35 ng/ul poly-dIdC, 1% milk, 1 h, room temperature; Ap Aiptasia and Nv Nematostella (sea anemones) / Co Capsaspora / Aq Amphimedon (sponge) / Dm Drosophila / Hu human; RHD is the Rel homology domain; high values mean tight binding; most listed sequences are background and not binding sites; double strand, one strand shown.
T1 sequence: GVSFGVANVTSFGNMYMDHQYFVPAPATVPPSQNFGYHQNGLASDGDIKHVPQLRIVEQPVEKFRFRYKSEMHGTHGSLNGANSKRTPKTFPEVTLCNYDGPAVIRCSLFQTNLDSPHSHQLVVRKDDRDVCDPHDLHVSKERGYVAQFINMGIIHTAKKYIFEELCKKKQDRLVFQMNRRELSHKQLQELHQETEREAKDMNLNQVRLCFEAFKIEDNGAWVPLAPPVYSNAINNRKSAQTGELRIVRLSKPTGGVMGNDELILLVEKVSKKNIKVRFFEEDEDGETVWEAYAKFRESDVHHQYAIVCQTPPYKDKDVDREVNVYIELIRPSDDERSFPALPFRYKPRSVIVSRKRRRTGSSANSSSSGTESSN
Sequence “CCGATTAACATCAGGCATGCCCCTGATGTTAATCGGGTCTTGATTCGCTTGACGCTGCTG” has a binding signal of 0.942 z-score.
“CCGATTAACATCAGAAATCCCGCTGATGTTAATCGGGTCTTGATTCGCTTGACGCTGCTG” gave a binding signal of 4.94 z-score.
“CCGATTAACATCAGAGTATTCCCTGATGTTAATCGGGTCTTGATTCGCTTGACGCTGCTG” showed a binding signal of 2.22 z-score.
With “CCGATTAACATCAGGGATTCCCATGATGTTAATCGGGTCTTGATTCGCTTGACGCTGCTG” the binding signal was 10 z-score.
